According to ChEMBL document CHEMBL4888484, “Replenishing the malaria drug discovery pipeline: Screening and hit evaluation of the MMV Hit Generation Library 1 (HGL1) against asexual blood stage Plasmodium falciparum ,using a nano luciferase reporter read-out” (2022):
Screen size: about 150,000 compounds; about 540 (0.36%) showed an effect of 50% or more. The list shows a part of the results.

test system: Plasmodium falciparum; assay: Primary screen in NF54 nanoGlo assay, in single point, at 2uM, 72h; a lower Z score goes with more inhibition; format: functional, Erythrocyte; conditions: timepoint 72 hour

SMILES	% Inhibition [%]	Z score
COCc1nc2n(n1)C[C@@H](Nc1ccc(Br)cn1)CC2	-3	0.22
Cc1ccc(C(=O)N2CC(C)CC(C)C2)cc1NC(=O)C1CCS(=O)(=O)C1 (stereo unspecified)	-11	1.69
CC(=O)N1CCc2cc(N3C[C@@H](C(=O)Nc4ccc(F)c(C)c4)CC3=O)ccc21	-7	1.33
Cc1ccc(-c2cc(C#N)c(NC(=O)c3ccc(Cl)cc3Cl)o2)cc1	-8	1.09
COc1cccc(Cn2cnc3c4ccccc4n(Cc4ccccc4F)c3c2=O)c1	-7	0.75
Cc1cc(C(=O)N2CCN(C)C[C@@H]2CC(C)C)c2c(C)n[nH]c2n1	1	-0.1
CCN1c2cc(C)ccc2-n2cccc2C12CCN(C(=O)Nc1ccc(C)c(F)c1)CC2	-6	0.77
CCOC(=O)C(C)(C)c1csc(-c2cnn(C)c2)n1	-2	0.18
CC(C(=O)N(C)CC1CCS(=O)(=O)C1)C(C)(C)C (stereo unspecified)	9	-1.2
Cc1cc(C)n2c(-c3ccccc3C)nnc2n1	34	-4.35
COc1cc(OC)cc(C(=O)N2CCN(C(C(=O)N3CCCCC3C)C3CCCC3)CC2)c1 (stereo unspecified)	1	-0.16
CN(C)c1ccc([C@H]2N(c3ccc(Cl)cc3)C(=O)[C@@H]3CCCN32)cc1	-7	0.87
CC(C1CC1)N(C)S(=O)(=O)NC1CCc2ccccc2C1 (stereo unspecified)	-9	1.13
CC[C@@H](C(=O)N1CCN(Cc2ccc(OC)c(OC)c2OC)CC1)N1C(=O)CCn2nc(C)cc21	-15	1.5
CCCCN(CC(N)=O)CC(=O)NCc1ccccc1	-2	0.32
O=C(CC(F)(F)F)Nc1nc2c(s1)C(=O)NCCC2	-10	1.95
COc1c[nH]c(COCCC2CCC2)cc1=O	-3	0.45
C[C@@H](c1ccncc1)N(C)C(=O)c1cccc2c1CCC2=O	-15	2.12
CC[C@@H](CO)NC(=O)COC1CCC(NC(=O)OC(C)(C)C)CC1 (stereo partly specified)	-1	0.15
O=C1C[C@H](c2nc(Cc3nc4ccccc4s3)no2)CN1	-9	1.82
CCOc1cccc([C@H](C)NCc2c(C)nnn2CC)c1	13	-1.62

SMILES	% Inhibition [%]	Z score
CC1CCN(c2nnc(C(=O)NC3CCCC3)c3ccccc23)CC1	-7	0.86
O=C(NCc1cccc(Cl)c1)c1ccc2c(c1)CCC(=O)N2Cc1ccccc1	-3	0.41
CN(CC(=O)NCC1CCCCC1)C[C@H]1CC(=O)N(C)C1	-16	2.25
CCCCNC(=O)CNc1c(C)cccc1C(N)=O	-7	1.26
Cc1nnc([C@@H](Nc2ncnc3sccc23)C(C)C)[nH]1	8	-1.08
Cc1nn(-c2ccccc2)c2c1nc(CCC(=O)NCc1ccc(Cl)cc1)c(=O)n2C	-1	0.17
Cc1ccc(-c2nccn3cc(C(=O)NCCCN(C)C)nc23)cc1	-6	0.85
CNC(=O)CC1CCN(Cc2cn(C)c3cc(OC)ccc23)CC1	-2	0.34
CN(Cc1ccccc1)[C@@H]1[C@H](O)[C@H](CO)O[C@@H]1CNS(=O)(=O)c1ccc(Cl)cc1	16	-1.87
Cc1cc(-c2nn(-c3ccccc3F)cc2CN(C)Cc2ccn[nH]2)c(C)s1	-8	1.15
Cc1cccc(NC(=O)C(=O)N2CCCN(C)CC2)c1Cl	-2	0.48
CC1Cc2cc(S(=O)(=O)N3CCOCC3c3nc[nH]n3)ccc2O1 (stereo unspecified)	-3	0.42
Cc1csc(-c2cc(S(=O)(=O)N3CCC(C)CC3)cn2CC(=O)N2CCCCC2)n1	-12	1.4
CCNC(=O)[C@H]1CCN(Cc2cc(C)c(OC(C)=O)c(C)c2)C1	-12	2.43
O=C(c1nc2ccccc2s1)N1CC(n2cc(C3CC3)nn2)C1	-6	0.89
Cc1ccc(S(=O)(=O)NCc2ccc(Cn3cccn3)cc2)cc1	-4	0.38
COC1(c2nccn2C)CCN(c2ccc(C(F)(F)F)cn2)CC1	-15	1.67
O=C(NC1CCCCCC1)c1ccn2c(-c3ccccc3Cl)nnc2c1	-15	1.72
Cn1cc(S(=O)(=O)N2CC(=O)Nc3cc(C(F)(F)F)ccc32)cc1C(N)=O	-8	1.12
CCCc1ccccc1C(=O)N[C@H]1CCO[C@H](c2ccccn2)C1	-9	1.75
Cc1ccc(NC[C@H]2CCN(CC(=O)NCc3ccco3)C2)nc1	-12	1.01

SMILES	% Inhibition [%]	Z score
C[C@H](O)CN1CCCC(C(F)(F)F)C1 (stereo partly specified)	-1	0.1
COCC(=O)N1CC[C@@H](c2ccccc2)S(=O)(=O)CC1	-18	3.09
CCCNC(=O)N1CCn2nc(CCC(=O)N3CCC(O)CC3)cc2C1	-12	2.22
O=S(=O)(CCC(F)(F)F)N1CC(N2CCCC2)C1	8	-0.9
Cc1cccc(-c2noc(CN3CCC4(CC3)C[C@@H]4c3nc(-c4cccnc4)no3)n2)c1	-2	0.36
Cc1cccc(C)c1NC(=O)CN1CCN(Cc2ccc(Cl)cc2)S1(=O)=O	-19	1.65
O=C(Nc1ccc2c(c1)OCO2)C1CC1C(=O)Nc1ccc(F)cc1F (stereo unspecified)	3	-0.42
Cc1cc(C(=O)N(C)[C@@H](C)C2CC2)on1	-10	1.08
CN(C)c1ncnc2c1ccc(=O)n2C	-9	1.57
CNC(=O)C1(N2CCC[C@H]2C(=O)N2CCCCCC2)COC1	13	-1.47
Cc1ccncc1C(=O)N1CCC2(CC1)C[C@@H]2NS(C)(=O)=O	-15	1.87
CCCn1cc(S(=O)(=O)N[C@@H](CC)c2nc(C)c[nH]2)cn1	-9	1.52
Cc1ccc(-c2c(N3CCCC3)cn[nH]c2=O)cc1	2	-0.15
CC(=O)Nc1ccc(CNC(=O)[C@H]2CC[C@H](c3ccccc3)C2)cc1	-11	1.39
COc1ccc(OCc2nc(-c3ccc4c(c3)nnn4C3CCCC3)no2)cc1	-20	2.54
CC[C@H](C)N(CCC(=O)Nc1nnc(-c2cccc(Cl)c2)s1)C(=O)COc1ccc(Cl)cc1	-12	1.13
O=C(NC[C@@H](c1ccco1)N1CCCC1)c1cnnn1-c1ccccc1	0	-0.01
CCc1ccc(C(=O)N2CCC(Oc3cccc(C(F)(F)F)c3)CC2)[nH]1	-12	2.12
CS(=O)(=O)N1C2CCC1CC(NC(=O)NC1CCCC1)C2 (stereo unspecified)	-23	2.97
COc1ccc(C(=O)N2CCCN(c3nc(C4CC4)nc4c3cnn4-c3ccccc3)CC2)cc1	-12	1.24
CC(C)[C@H]1CN(c2ccncc2F)C[C@@H]1NC(=O)CCS(C)(=O)=O	-8	1.18

SMILES	% Inhibition [%]	Z score
CCCc1nc(CN(CC)C(=O)NCc2ccccc2F)no1	-8	1.15
O=S(=O)(CC1CCCCO1)N1CCC(N2CCCC2)C1 (stereo unspecified)	5	-0.97
O=C(C1CCCC2CCCCC21)N1CCOC(C(F)F)C1 (stereo unspecified)	-14	1.5
N#Cc1ccc(-c2nc(C(=O)NC3CCCCCC3)no2)cc1	-16	1.45
O=C(c1cc(-c2ccccc2F)nc2cc(-c3ccccc3)nn12)N1CCN(c2cccc(C(F)(F)F)c2)CC1	-3	0.38
Cc1ccc(C(=O)Nc2ccc3c(c2)cc(C(=O)Nc2ccccc2)n3Cc2ccc(C(C)(C)C)cc2)cc1C	8	-0.85
CCCCc1nc(C)cc(NCCNC(=O)c2cncn2C)n1	-31	2.74
CC1CC(C)CN(C(=O)Cc2ccc(F)cc2)C1 (stereo unspecified)	4	-0.55
CN(Cc1ccccc1)C(=O)C[C@@H]1CCNC[C@@H]1Cc1cc(-c2ccc(C(C)(C)C)cc2)on1	31	-3.48
Cc1c(CC(=O)NCC(N)=O)c2c(n1Cc1ccccc1)CCCC2=O	1	-0.27
O=C(NCC[C@H]1CCC(F)(F)C1)c1cnn2c1OCCC2	6	-1.11
Cc1cc(C(=O)N2CCN(c3ccccc3)CC2)c2c(C)nn(-c3ccccc3Cl)c2n1	-7	0.92
CC(NC(=O)CN1C(C(=O)O)CC2CCCCC21)c1ccc(F)cc1 (stereo unspecified)	-5	0.6
CCc1ccccc1S(=O)(=O)N[C@@H]1CS(=O)(=O)C[C@H]1O	-5	0.63
CNC(=O)c1ccc(CN(C)C2CCCCC2O)o1 (stereo unspecified)	2	-0.21
CN(Cc1c[nH]nc1-c1c(F)cccc1F)CC1(O)CCOCC1	-17	1.71
CC1CN(CC(=O)NC2(C#N)CCCCC2)CC(C)O1 (stereo unspecified)	-3	0.61
COc1cc2c(cc1OC)C1CCCCC1OC2c1cccc(NS(C)(=O)=O)c1 (stereo unspecified)	35	-3.96
Cc1cccc(NC(=O)c2cccc(C(=O)Nc3cccc(C)n3)n2)n1	6	-0.88
Cc1n[nH]c(=O)nc1NCCc1c[nH]c2ccccc12	1	-0.16
